Measured values taken from PubChem BioAssay AID488969 (Vanderbilt High Throughput Screening Facility, 2010).
The full ranking holds about 110,000 compounds; the median of “z-score” is about -0.1, and the highest 2% start at about 2. Some of the results follow. Active and inactive are the calls of the source.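 How the source made its calls: active means z-score in the third read window above 3 or below -3; inactive means the rest.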

Target: Metabotropic glutamate receptor 8 (Rattus norvegicus) (UniProt P70579)
Assay: rat mGluR8 modulators via GIRK flux, primary screen, cell-based, thallium flux, HTS (AID 488969)
Conditions: HEK293 rat mGluR8, GIRK (G protein-gated inwardly rectifying potassium channel) thallium flux, FluoZin2; at 10 µM; stronger effect = higher value; submaximal glutamate (EC20) added with thallium

Sequence of UniProt P70579 (P70579 whole entry, looked up): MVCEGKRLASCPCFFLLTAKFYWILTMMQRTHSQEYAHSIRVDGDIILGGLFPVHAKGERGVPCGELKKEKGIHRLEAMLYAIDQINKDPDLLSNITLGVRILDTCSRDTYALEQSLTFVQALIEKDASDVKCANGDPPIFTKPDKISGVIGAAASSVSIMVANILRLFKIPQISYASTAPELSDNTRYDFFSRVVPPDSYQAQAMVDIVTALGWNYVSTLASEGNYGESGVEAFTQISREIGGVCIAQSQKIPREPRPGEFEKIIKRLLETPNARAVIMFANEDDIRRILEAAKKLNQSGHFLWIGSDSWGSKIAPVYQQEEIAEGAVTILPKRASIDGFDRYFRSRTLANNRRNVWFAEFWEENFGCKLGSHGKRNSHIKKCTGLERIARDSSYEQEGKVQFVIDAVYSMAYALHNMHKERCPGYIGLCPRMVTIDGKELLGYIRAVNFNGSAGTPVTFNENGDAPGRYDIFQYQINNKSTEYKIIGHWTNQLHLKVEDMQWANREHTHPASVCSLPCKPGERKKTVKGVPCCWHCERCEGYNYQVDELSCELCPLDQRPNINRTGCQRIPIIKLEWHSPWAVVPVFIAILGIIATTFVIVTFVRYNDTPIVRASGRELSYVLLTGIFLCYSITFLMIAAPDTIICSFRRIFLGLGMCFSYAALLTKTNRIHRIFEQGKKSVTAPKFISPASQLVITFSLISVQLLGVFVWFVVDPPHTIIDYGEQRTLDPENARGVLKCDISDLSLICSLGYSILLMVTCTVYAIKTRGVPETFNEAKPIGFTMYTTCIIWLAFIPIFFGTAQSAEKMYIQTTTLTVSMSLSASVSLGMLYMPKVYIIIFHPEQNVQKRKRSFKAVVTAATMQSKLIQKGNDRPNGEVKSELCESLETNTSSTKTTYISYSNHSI

SMILES	z-score
O=c1oc2ccccc2c2c1C(c1ccc(Cl)cc1)Nc1ccc3ccccc3c1-2 (stereo unspecified)	-0.402
NC(=O)C1CCN(C(=O)CSc2nc3ccccc3[nH]2)CC1	-0.104
Cc1nc(C)n(CC(O)COc2ccc3cc(Br)ccc3c2)n1 (stereo unspecified)	0.0501
O=C(Cn1cnc2c(nnn2Cc2ccc(F)cc2)c1=O)NCC1CCCO1 (stereo unspecified)	0.169
CC(C)C(CC(=O)NCc1ccco1)c1ccco1 (stereo unspecified)	-0.217
O=C(Cc1ccccc1)N/N=C/c1ccccc1OCc1ccc(Cl)cc1	-0.118
Cc1cc(NC(=O)c2ccc(NC(=O)CC(C)C)cc2)no1	-0.175
Cn1c(=O)c2c(nc(NCCO)n2C)n(C)c1=O	0.204
COC(=O)c1c(NC(=O)CC2NCCNC2=O)sc2c1CCCC2 (stereo unspecified)	-0.458
O=C1C2C3c4ccccc4C(c4ccccc43)C2C(=O)N1c1cccc2cccnc12 (stereo unspecified)	-0.241
CC1(C)Cc2cccc(OCC(=O)Nc3ccccc3N3CCOCC3)c2O1	-1.79
CCCNC(=O)CN(C)C(=O)c1n[nH]c2ccccc12	-0.0168
O=C(Nc1cccc(F)c1)c1ccc(S(=O)(=O)N2CCCC2)cc1	0.102
CCOC(=O)c1sc(/N=C/c2ccc(O)cc2O)cc1C	-0.116
Cc1ccc(NC(=O)c2ccc(CN3CCc4ccccc4C3)cc2)cc1	0.0157
O=C(NCc1cccnc1)c1cc(Cl)ccc1[N+](=O)[O-]	-0.256
CCOc1cc(NC(=S)NCC2CCCO2)c(OCC)cc1NC(=O)c1ccccc1 (stereo unspecified)	-0.282
CCC1(C)Cc2nc3[nH]c(=S)n(-c4ccccc4)c(=O)c3cc2CO1 (stereo unspecified)	-0.0711
O=C(Cn1ccc2ccccc2c1=O)N1CCN(Cc2ccc3c(c2)OCO3)CC1	0.477
CCC(=S)/C=C1\Sc2ccccc2N1CCCS(=O)(=O)O	0.543
O=C1CC(c2ccco2)Cc2nc(Nc3ccc(F)cc3)ncc21 (stereo unspecified)	-0.666
Cc1ccc(NC(=O)CN(Cc2ccccc2)S(C)(=O)=O)cc1C	-0.124
O=C(CNCc1ccc(Cl)cc1)NCc1ccco1	-0.217
O=C(CCNS(=O)(=O)c1ccc(Br)s1)N1CCCCC1	-0.315

SMILES	z-score
CC(=O)c1c(C)oc2ccc(N(C(=O)C3CCCCC3)S(=O)(=O)c3cc([N+](=O)[O-])ccc3C)cc12	0.0278
Cc1cc(C)nc(SCCC(=O)Nc2ccccc2C)n1	0.236
CC(=O)Nc1ccc2c(c1)CN(c1cc(C)ccc1C)CO2	-0.238
c1ccc(OCc2nnnn2-c2ccccc2)cc1	-0.0761
Cn1nc(C(F)(F)F)cc1C(=O)NC1CCCCCC1	0.13
O=C(CSc1nnnn1-c1ccc(Cl)cc1)NC(=O)Nc1ccc2c(c1)OCCO2	1.46
Cc1ccc(/C=C2\SC(=S)N(CCCC(=O)Nc3nccs3)C2=O)cc1	0.213
Cc1cccc(NC(=O)CSc2nc3c(c(=O)[nH]2)CCCC3)c1C	-0.487
N=c1c2c(n(Cc3ccc(Br)cc3)c3c1CCC3)CCCC2	0.0858
CCC1CCCCN1S(=O)(=O)c1ccc2c(c1)CCN2C(=O)C1CCC1 (stereo unspecified)	-0.458
CCCCC(=O)N/N=C/c1ccc(Sc2cccc3cccnc23)o1	0.318
COc1cccc(/C=N/n2c(C)nc3ccccc3c2=O)c1O	-0.294
CNc1c(C(=O)O)ccc2c1C(=O)c1ccccc1C2=O	-0.963
COc1cc(CCN2C(=O)c3cccc4cccc(c34)C2=O)c(S(=O)(=O)NCCO)cc1OC	0.0309
CCOC(=O)C1CCN(C(=O)CN(c2ccc(Cl)c(C(F)(F)F)c2)S(C)(=O)=O)CC1	active: -4.72
O=C(NCc1cccnc1)Nc1ccccc1F	-0.0669
COc1ccc(OCC(=O)Nc2ccc3c(c2)nc(CN2CCCC2)n3C)cc1	0.0515
Nc1nonc1-c1nc2ccccc2[nH]1	0.315
CCCn1c(N)c(C(=O)CSc2nnc(-c3cccnc3)n2-c2ccc(C)cc2C)c(=O)[nH]c1=O	-0.424
Cc1ccc(-c2nn(CC(=O)NC(C)c3ccccc3)c(=O)c3ccccc23)cc1 (stereo unspecified)	-0.853
CCNC(=O)NC(=O)C(C)OC(=O)c1cc(S(=O)(=O)N2CCCCCC2)ccc1OC (stereo unspecified)	-0.708
CCOC(=O)c1cnc(Nc2nc3ccccc3o2)nc1CSc1ncccn1	0.774
COc1ccccc1CN1CCCC(C(=O)N(C)Cc2ccccc2)C1 (stereo unspecified)	0.513
O=C(c1c[nH]c2ccc(S(=O)(=O)N3CCOCC3)cc2c1=O)N1CCN(c2ccccn2)CC1	-0.213

SMILES	z-score
Cc1ccc(C(=O)Nc2nnc(-c3ccco3)o2)cc1	0.435
CC(C)(C)c1ccc(NC(=S)NCc2cccs2)cc1	-0.232
CCOc1ccccc1N(C(=O)Nc1ccc(Cl)cc1)C1=NC(C)CS1 (stereo unspecified)	-0.304
O=C(N/N=C/c1ccccn1)c1cc(-c2cccc3ccccc23)n[nH]1	-0.836
Clc1ccc(C(c2nnnn2CCc2ccccc2)N2CCSCC2)cc1 (stereo unspecified)	0.0285
O=C(CCC1CCCC1)N1CCN(C(=O)c2ccco2)CC1	2.43
Cc1ccccc1CSCC(=O)c1c(N)n(C)c(=O)n(C)c1=O	-0.253
COc1cccc(C2C(C(N)=O)=C(C)Nc3nc(-c4cccc(Cl)c4)nn32)c1 (stereo unspecified)	-0.342
O=C(Cc1ccccc1)Nc1ccc(N2CCN(Cc3ccccc3F)CC2)cc1	0.34
CC(C)OC(=O)CCCNc1ccc([N+](=O)[O-])cc1[N+](=O)[O-]	-0.2
CCCNC(=O)Cn1c(=O)oc2ccccc21	-0.131
CCCCNC(=O)Cc1c(O)c2ccccc2[nH]c1=O	0.214
CSc1c2c(nc3ncnn13)CCC2	-0.202
CC(=O)c1c(C)[nH]c(C(=O)N2c3ccccc3CC2C)c1C (stereo unspecified)	-0.0545
Cc1ccc(CNC(=O)c2cnc(-c3ccccn3)nc2C(F)(F)F)cc1	-0.17
Cc1ccsc1/C=N/NC(=O)c1ccco1	1.93
N/C(=N\OC(=O)c1ccc(Cl)cc1Cl)c1ccc(Cl)cc1	-0.299
CN1C(=O)C2(C(C#N)=C(N)Oc3c2oc(CO)cc3=O)c2ccccc21 (stereo unspecified)	-0.124
Cc1nc(NC(=O)c2ccc(Cl)cc2)nc2cc3c(cc12)OCO3	-0.325
COc1ccc(-c2cnc(SCC(=O)Nc3nc(C(C)(C)C)cs3)n2Cc2ccco2)cc1	0.0122
CCC1=NN(C(=O)CCc2ccccc2)C(O)(C(F)(F)F)C1 (stereo unspecified)	-0.157
O=C(Nc1ccc(Cl)c(Cl)c1)N1CCSCC1	-0.198
CC(=O)Nc1ccc(S(=O)(=O)NNC(=O)c2sc(=S)n(C)c2C)cc1	-0.387
